Test results from US20050282843A1, “Therapeutic applications of 2-substituted 4-heteroarylpyrimidines” (priority 2002, published 2005).
Read-outs that look alike come from different tables or passages of the source.

Experiments:
[1] = target: GSK-3β (Oryctolagus cuniculus, UniProt G1T8E2); test: GSK-3β kinase assay (phosphorylation of CREB phosphopeptide); format: biochemical, rabbit
Protocol: (§1) GSK-3 was obtained from New England Biolabs (UK) Ltd., Hitchin, Herts. The recombinant enzyme was isolated from a strain of E. coli that carries a clone expressing GSK-3β derived from a rabbit skeletal muscle cDNA library [Wang, Q. M.; Fiol, C. […] The samples were transferred to 96-well p81 filter plates (Whatman Polyfiltronics, Kent, UK), and the plates were washed 4 times with 200 μL/well of 75 mM aq orthophosphoric acid.

[2] = target: T1, CDK2/cyclin E (Homo sapiens, UniProt P24941); test: CDK/cyclin kinase assay, CDK2/cyclin E; format: biochemical
T1 construct: His6; made in house; host or cells: Sf9 insect cells (baculovirus)

[3] = test system: cellular glycogen synthase activity in HEK293 cells; test: Glycogen synthase (GS) assay in HEK293 cells; format: cell-based, human; settings: for capable of inducing cellular glycogen synthase (GS) activity: result in words; for -Fold induction of GS activity: In HEK293 cells at [compound] = 5 μM, over control samples
Protocol: Cells on 10 cm dishes (Human Embryonic Kidney (HEK) 293 cells, L6 rat myocytes, or 3T3 mouse adipocytes) were treated with different concentrations of GSK3-inhibitors or DMSO vehicle for 90 min. Incubation medium was removed and cells were washed with ice-cold phosphate-buffered saline (PBS) prior to lysis on ice in 50 mM HEPES, pH 7.5, 10 mM EDTA, 100 mM NaF, 5 mM DTT, protease inhibitor cocktail (Sigma). After a freeze/thaw cycle the samples are sonicated for 10 sec and centrifuged at 15,000 g for 10 min at 4° C. Lysate supernatants were snap-frozen on liquid nitrogen and stored at −80° C. Lysates were assayed for glycogen synthase activity in buffer (50 mM Tris-HCl, pH 7.8, 20 mM EDTA, 25 mM NaF, 5 mM DTT, 1% glycogen, 0.3 mM UDP-glucose and 0.06 μCi of [^14C]-UDP-glucose in the presence of 0.1 or 10 mM glucose-6-phosphate. The reaction was carried out for 30 min at 30° C. 70 μL of the reaction mixture (total volume 90 μL) were transferred to a GFC 96-well filter plate (bottom sealed with foil), containing 140 μL 96% ethanol. The GFC plate was incubated for 1 h on ice and than washed with 66% ethanol. To each well 100 μL scintillant liquid was added and the radioactivity of the samples was measured using a scintillation counter (Topcount, HP). Data are expressed as -fold increase in glycogen synthase activity ratios over those of control samples.

[4] = target: CDK4/cyclin D1 (Homo sapiens, UniProt P11802); test: CDK/cyclin kinase assay, CDK4/cyclin D1
[5] = test system: GSK-3β; test: GSK-3β kinase assay (phosphorylation of CREB phosphopeptide); format: biochemical, rabbit; settings: ratio of IC50 values
Protocol: as §1

[6] = target: CDK2/cyclin A (Homo sapiens, UniProt P24941); test: CDK/cyclin kinase assay, CDK2/cyclin A
[7] = target: CDK1/cyclin B1 (Homo sapiens, UniProt P06493); test: CDK/cyclin kinase assay, CDK1/cyclin B1
[8] = read-out: Kinase inhibition IC50 GSK3β
[9] = read-out: IC50 value as measured by a GSK3β kinase assay
[10] = read-out: Kinase inhibition IC50 CDK2/E

CDK4/cyclin D1, sequence (P11802 whole entry): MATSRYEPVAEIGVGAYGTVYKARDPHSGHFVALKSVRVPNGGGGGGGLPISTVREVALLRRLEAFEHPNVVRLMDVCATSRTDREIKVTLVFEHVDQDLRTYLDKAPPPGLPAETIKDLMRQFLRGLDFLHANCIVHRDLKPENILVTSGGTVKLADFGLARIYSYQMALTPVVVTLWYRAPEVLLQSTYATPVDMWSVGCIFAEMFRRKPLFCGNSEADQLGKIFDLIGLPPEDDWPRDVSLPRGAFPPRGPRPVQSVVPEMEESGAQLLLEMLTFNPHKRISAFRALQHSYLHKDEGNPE
CDK4/cyclin D1, sequence (P24385 whole entry partner): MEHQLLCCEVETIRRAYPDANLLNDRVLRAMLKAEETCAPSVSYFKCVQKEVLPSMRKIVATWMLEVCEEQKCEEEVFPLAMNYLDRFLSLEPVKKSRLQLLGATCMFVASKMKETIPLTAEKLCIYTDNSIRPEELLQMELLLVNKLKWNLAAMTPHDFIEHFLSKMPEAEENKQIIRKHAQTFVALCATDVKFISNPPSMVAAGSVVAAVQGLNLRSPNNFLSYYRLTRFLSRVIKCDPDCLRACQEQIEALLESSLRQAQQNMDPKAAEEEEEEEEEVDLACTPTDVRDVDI
CDK1/cyclin B1, sequence (P06493 whole entry): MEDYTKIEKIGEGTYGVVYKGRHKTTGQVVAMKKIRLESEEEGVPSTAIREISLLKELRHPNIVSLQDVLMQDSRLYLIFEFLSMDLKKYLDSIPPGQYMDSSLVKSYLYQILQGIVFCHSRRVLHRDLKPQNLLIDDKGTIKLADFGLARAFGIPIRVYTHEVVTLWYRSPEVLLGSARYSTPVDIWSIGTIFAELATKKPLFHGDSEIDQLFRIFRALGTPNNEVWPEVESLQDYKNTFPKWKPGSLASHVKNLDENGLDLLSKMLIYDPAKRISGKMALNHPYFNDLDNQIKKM
CDK1/cyclin B1, sequence (P14635 whole entry partner): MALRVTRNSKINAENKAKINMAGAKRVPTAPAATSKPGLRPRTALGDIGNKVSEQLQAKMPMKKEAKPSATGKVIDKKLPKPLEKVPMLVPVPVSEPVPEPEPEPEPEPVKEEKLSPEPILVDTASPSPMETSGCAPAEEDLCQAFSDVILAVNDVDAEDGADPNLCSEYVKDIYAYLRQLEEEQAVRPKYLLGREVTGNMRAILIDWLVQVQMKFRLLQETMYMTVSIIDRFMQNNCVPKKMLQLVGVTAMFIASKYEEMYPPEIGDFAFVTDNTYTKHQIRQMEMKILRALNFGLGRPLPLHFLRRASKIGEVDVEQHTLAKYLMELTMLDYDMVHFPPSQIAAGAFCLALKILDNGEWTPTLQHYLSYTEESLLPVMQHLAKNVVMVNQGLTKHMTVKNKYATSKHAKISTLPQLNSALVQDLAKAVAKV
GSK-3β, sequence (G1T8E2 1-432): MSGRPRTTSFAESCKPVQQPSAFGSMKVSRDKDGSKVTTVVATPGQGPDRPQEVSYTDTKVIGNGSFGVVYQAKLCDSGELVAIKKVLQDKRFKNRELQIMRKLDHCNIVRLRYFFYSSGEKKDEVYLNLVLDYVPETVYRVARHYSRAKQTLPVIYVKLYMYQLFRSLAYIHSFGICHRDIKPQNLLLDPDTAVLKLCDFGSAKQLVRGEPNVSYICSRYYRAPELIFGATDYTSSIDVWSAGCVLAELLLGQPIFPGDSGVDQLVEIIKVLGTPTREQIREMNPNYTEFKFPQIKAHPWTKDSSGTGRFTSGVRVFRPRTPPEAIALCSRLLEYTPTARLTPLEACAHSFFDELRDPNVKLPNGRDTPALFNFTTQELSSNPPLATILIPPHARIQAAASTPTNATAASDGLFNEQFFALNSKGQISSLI

`Cc1[nH]c(C#N)c(C)c1-c1ccnc(Nc2cccc([N+](=O)[O-])c2)n1` [Compound 1, 3,5-Dimethyl-4-[2-(3-nitro-phenylamino)-pyrimidin-4-yl]-1H-pyrrole-2-carbonitrile] gave an IC50 [1, 8] of 210 nM.
Compound `Cc1[nH]c(C#N)c(C)c1-c1ccnc(Nc2ccc(F)cc2)n1` [Compound 2, 4-[2-(4-Fluoro-phenylamino)-pyrimidin-4-yl]-3,5-dimethyl-1H-pyrrole-2-carbonitrile] has an IC50 [1, 8] of 150 nM.
Compound `Cc1[nH]c(C#N)c(C)c1-c1ccnc(Nc2ccc(O)cc2)n1` [Compound 3, 4-[2-(4-Hydroxy-phenylamino)-pyrimidin-4-yl]-3,5-dimethyl-1H-pyrrole-2-carbonitrile] has an IC50 [1, 8] of 190 nM.
Compound `Cc1[nH]c(C#N)c(C)c1-c1ccnc(Nc2cccc(O)c2)n1` [Compound 6, 4-[2-(3-Hydroxy-phenylamino)-pyrimidin-4-yl]-3,5-dimethyl-1H-pyrrole-2-carbonitrile] has an IC50 [1, 9] of less than 1000 nM, an IC50 [1, 8] of 160 nM and an IC50 [2] of 40 nM. The “capable of inducing cellular glycogen synthase (GS) activity” value (“capable” for short) [3] was “inducing cellular glycogen synthase (GS) activity”.
For `Cc1ccc(Nc2nccc(-c3c(C)[nH]c(C#N)c3C)n2)cc1[N+](=O)[O-]` [Compound 7, 3,5-Dimethyl-4-[2-(4-methyl-3-nitro-phenylamino)-pyrimidin-4-yl]-1H-pyrrole-2-carbonitrile], the IC50 [1, 9] was less than 100 nM, the IC50 [1, 8] was 40 nM and the “capable” value [3] was “inducing cellular glycogen synthase (GS) activity”.
Work on `Cc1ccc(Nc2nccc(-c3c(C)[nH]c(C#N)c3C)n2)cc1O` [Compound 10, 4-[2-(3-Hydroxy-4-methyl-phenylamino)-pyrimidin-4-yl]-3,5-dimethyl-1H-pyrrole-2-carbonitrile] yielded an IC50 [1, 9] of less than 1000 nM and an IC50 [1, 8] of 280 nM.
Compound `Cc1cc(Nc2nccc(-c3c(C)[nH]c(C#N)c3C)n2)ccc1F` [Compound 11, 4-[2-(4-Fluoro-3-methyl-phenylamino)-pyrimidin-4-yl]-3,5-dimethyl-1H-pyrrole-2-carbonitrile] has an IC50 [1, 9] of less than 1000 nM, an IC50 [1, 8] of 290 nM and an IC50 [4] of 360 nM.
`Cc1[nH]c(C(N)=O)c(C)c1-c1ccnc(Nc2ccc(F)cc2)n1` [Compound 13, 4-[2-(4-Fluoro-phenylamino)-pyrimidin-4-yl]-3,5-dimethyl-1H-pyrrole-2-carboxylic acid amide] showed an IC50 [1, 9] of less than 100 nM and an IC50 [1, 8] of 50 nM.
With `Cc1[nH]c([N+](=O)[O-])c(C)c1-c1ccnc(Nc2ccc(F)cc2)n1` [Compound 14, [4-(2,4-Dimethyl-5-nitro-1H-pyrrole-3-yl)-pyrimidin-2-yl]-(4-fluoro-phenyl)-amine] the IC50 [1, 8] was 800 nM and the IC50 [4] was 220 nM.
With `Cc1[nH]c(Br)c(C)c1-c1ccnc(Nc2ccc(F)cc2)n1` [Compound 16, [4-(5-Bromo-2,4-dimethyl-1H-pyrrole-3-yl)-pyrimidin-2-yl]-(4-fluoro-phenyl)-amine] the IC50 [1, 8] was 3200 nM and the IC50 [2] was 550 nM.
`Cc1[nH]c(Cl)c(C)c1-c1ccnc(Nc2ccc(F)cc2)n1` [Compound 18, [4-(5-Chloro-2,4-dimethyl-1H-pyrrole-3-yl)-pyrimidin-2-yl]-(4-fluoro-phenyl)-amine] gave an IC50 [1, 8] of 2500 nM.
With `Cc1[nH]c(CN(C)C)c(C)c1-c1ccnc(Nc2ccc(F)cc2)n1` [Compound 19, [4-(5-Dimethylaminomethyl-2,4-dimethyl-1H-pyrrole-3-yl)-pyrimidin-2-yl]-(4-fluoro-phenyl)-amine] the IC50 [1, 8] was 14000 nM, the “Selectivity, IC50 (CDK2/E)/IC50 (GSK3β)” value [5] was 0.01 and the IC50 [2, 10] was 140 nM. The IC50 [4] was 4500 nM.
For `Cc1ccc(Nc2nccc(-c3c(C)[nH]c(C#N)c3C)n2)cc1F` [Compound 22, 4-[2-(3-Fluoro-4-methyl-phenylamino)-pyrimidin-4-yl]-3,5-dimethyl-1H-pyrrole-2-carbonitrile], the IC50 [1, 8] was 340 nM, the “Selectivity, IC50 (CDK2/E)/IC50 (GSK3β)” value [5] was 2.2 and the IC50 [2, 10] was 760 nM. The “-Fold induction of GS activity” value [3] was 2.8 -fold and the IC50 [4] was 2070 nM.
In the case of `Cc1c(-c2ccnc(Nc3ccc(Cl)cc3)n2)sc(=O)n1C` [Compound 23, 5-[2-(4-Chloro-phenylamino)-pyrimidin-4-yl]-3,4-dimethyl-3H-thiazol-2-one], the IC50 [1, 9] is reported as less than 100 nM, the IC50 [1, 8] is reported as 30 nM and the “Selectivity, IC50 (CDK2/E)/IC50 (GSK3β)” value [5] is reported as 10. The IC50 [2, 10] was 290 nM, the IC50 [6] was 740 nM and the IC50 [7] was 1960 nM. It also gave an IC50 [4] of 2900 nM.
With `Cc1c(-c2ccnc(Nc3cccc(O)c3)n2)sc(=O)n1C` [Compound 25, 5-[2-(3-Hydroxy-phenylamino)-pyrimidin-4-yl]-3,4-dimethyl-3H-thiazol-2-one] the IC50 [1, 9] was less than 100 nM, the IC50 [1, 8] was 40 nM and the “Selectivity, IC50 (CDK2/E)/IC50 (GSK3β)” value [5] was 2.3. It also gave an IC50 [2, 10] of 90 nM, an IC50 [6] of 90 nM and an IC50 [7] of 510 nM. It also gave an IC50 [4] of 1100 nM.
`Cc1c(-c2ccnc(Nc3ccc(N(C)C)cc3)n2)sc(=O)n1C` [Compound 26, 5-[2-(4-Dimethylamino-phenylamino)-pyrimidin-4-yl]-3,4-dimethyl-3H-thiazol-2-one] was tested, and the IC50 [1, 8] was 640 nM, the “Selectivity, IC50 (CDK2/E)/IC50 (GSK3β)” value [5] was 2.4 and the IC50 [2, 10] was 1500 nM. For the same compound, the IC50 [6] was 750 nM, the IC50 [7] was 2470 nM and the IC50 [4] was 950 nM.
With `Cc1[nH]cc(-c2ccccc2)c1-c1ccnc(Nc2ccc(F)cc2)n1` [Compound 27, (4-Fluoro-phenyl)-[4-(2-methyl-4-phenyl-1H-pyrrole-3-yl)-pyrimidin-2-yl]-amine] the IC50 [1, 8] was 500 nM, the “Selectivity, IC50 (CDK2/E)/IC50 (GSK3β)” value [5] was greater than 100 and the IC50 [2, 10] was greater than 50000 nM. The “-Fold induction of GS activity” value [3] was 1.8 -fold and the “capable” value [3] was “inducing cellular glycogen synthase (GS) activity”.
`CCOC(=O)c1ccc(Nc2nccc(-c3sc(NC)nc3C)n2)cc1Cl` [Compound 29, 2-Chloro-4-[4-(4-methyl-2-methylamino-thiazol-5-yl)-pyrimidin-2-ylamino]-benzoic acid ethyl ester] was tested, and the IC50 [1, 8] was 370 nM and the “Selectivity, IC50 (CDK2/E)/IC50 (GSK3β)” value [5] was 0.3.
With `Cc1nc(N)sc1-c1ccnc(Nc2cccc([N+](=O)[O-])c2)n1` [Compound 30, [4-(2-Amino-4-methyl-thiazol-5-yl)-pyrimidin-2-yl]-(3-nitro-phenyl)-amine] the IC50 [1, 8] was 220 nM.
`Cc1c(-c2ccnc(Nc3cccc([N+](=O)[O-])c3)n2)sc(=O)n1C` [Compound 32, 3,4-Dimethyl-5-[2-(3-nitro-phenylamino)-pyrimidin-4-yl]-3H-thiazol-2-one] was tested, and the IC50 [1, 9] was less than 1 nM, the IC50 [1, 8] was 0.7 nM and the “Selectivity, IC50 (CDK2/E)/IC50 (GSK3β)” value [5] was 86. The IC50 [2, 10] was 60 nM, the “-Fold induction of GS activity” value [3] was 5.4 -fold and the “capable” value [3] was “inducing cellular glycogen synthase (GS) activity”. The IC50 [4] was 230 nM.
For `Cc1c(-c2ccnc(Nc3ccc(F)cc3)n2)sc(=O)n1C` [Compound 33, 5-[2-(4-Fluoro-phenylamino)-pyrimidin-4-yl]-3,4-dimethyl-3H-thiazol-2-one], the IC50 [1, 9] was less than 100 nM, the IC50 [1, 8] was 20 nM and the “Selectivity, IC50 (CDK2/E)/IC50 (GSK3β)” value [5] was 6.7. The IC50 [2, 10] was 120 nM and the IC50 [4] was 1120 nM.
In the case of `Cc1c(-c2ccnc(Nc3ccc(O)cc3)n2)sc(=O)n1C` [Compound 34, 5-[2-(4-Hydroxy-phenylamino)-pyrimidin-4-yl]-3,4-dimethyl-3H-thiazol-2-one], the IC50 [1, 9] is reported as less than 100 nM, the IC50 [1, 8] is reported as 90 nM and the “Selectivity, IC50 (CDK2/E)/IC50 (GSK3β)” value [5] is reported as 0.5. For the same compound, the IC50 [2, 10] was 50 nM, the “-Fold induction of GS activity” value [3] was 1.8 -fold and the “capable” value [3] was “inducing cellular glycogen synthase (GS) activity”. The IC50 [4] was 600 nM.
For `Cc1cc(Nc2nccc(-c3sc(=O)n(C)c3C)n2)ccc1F` [Compound 37, 5-[2-(4-Fluoro-3-methyl-phenylamino)-pyrimidin-4-yl]-3,4-dimethyl-3H-thiazol-2-one], the IC50 [1, 9] was less than 100 nM, the IC50 [1, 8] was 50 nM and the “Selectivity, IC50 (CDK2/E)/IC50 (GSK3β)” value [5] was 2.7. For the same compound, the IC50 [2, 10] was 130 nM, the “-Fold induction of GS activity” value [3] was 3.5 -fold and the IC50 [7] was 1100 nM.
